Measurements taken from the supplement of paper PMC11417369.
± gives the standard deviation of the averaged measurements. The list shows a part of the results.

The sequences below were run on PfAP2-I AP2 domain 3 (GST-tagged) (assay: gcPBM binding intensity (ln(normalized median fluorescence intensity)); higher = stronger DNA binding).
Summary of the method: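 Alexa488 anti-GST antibody, scanned at 488 nm, detected GST-tagged P. falciparum DNA-binding domains that had been expressed in E. coli and incubated for 1 h on an Agilent 4 × 180k array. The array carried primer-extended double-stranded 36-bp intergenic genomic probes and negative controls. Binding intensity is the highest Masliner-normalised natural-log median intensity across replicate spots of either orientation of each probe.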

Row | Sequence | gcPBM binding intensity (ln)
1 | AAAGAATACATATATTGTACATATATATATACCGTT [XGTACX_site6250] | 7.86 ± 0.75
2 | AGAATTAAAATAAAGGTGCATTTTTTTGTTTCATGT | 9.94 ± 0.23
3 | AGTTATTTTATAGAATATGAATAATTTTACTTTTCA [XGTACX_negctrl_site403] | 7.21 ± 0.53
4 | TTCATTCATTTTATTACACACAAAAAAAAAAAAAAA [CACACA_site3680] | 8.05 ± 0.35
5 | AATTTCATTTTACTTATCTAATATTTATAATCTTTT [CACACA_negctrl_site636] | 7.71 ± 0.56
6 | AAAAAAAAAGGTACTACACACTATTCTCAATAGAAA [CACACA_site6193] | 7.67 ± 0.52
7 | AAAAAAAAAAAAAAAAGTACATATAATAAATAATGA [XGTACX_site7931] | 8.62 ± 0.45
8 | TATATCTTAATATTTACACACATGCGCACCCATAAA [CACACA_site5349] | 9.65 ± 0.41
9 | AATCTTTGTAATAAAAGTACATTAATTTTATTAATA [XGTACX_site8325] | 7.67 ± 0.092
10 | ACACATACAACGTGGTGTACAAATAATTATAATCAA [XGTACX_site2287] | 7.93 ± 0.63
11 | TTTTAAATACTTTATTGTACATTATATATATATATA [XGTACX_site7021] | 8.88 ± 0.042
12 | TAAGTATATATATTTACACACATTTGTTTTTTTTTA [CACACA_site3784] | 7.57 ± 0.6
13 | AATTATGTGTGTCAATGTACACGATTTACATAATAT [XGTACX_site5150] | 7.98 ± 0.55
14 | TGAAAAATATAAGGTTGTACTTACATCGGGAATAAT [XGTACX_site4701] | 8.05 ± 0.55
15 | AATATATGGTTTCTTGATATTAAATTCAATTTAATG [CACACA_negctrl_site69] | 7.51 ± 0.59
16 | ATAAATGAACAAGTGGCACACACACCGTATAACTAA [CACACA_site9047] | 8.19 ± 0.52
17 | ATCCGTGGGTGAAATACACACATGATAATGTGAATG [CACACA_site4662] | 7.54 ± 0.5
18 | ATTTGTATATACATATGTACACATGTAGGCTCATAA [XGTACX_site1709] | 7.87 ± 0.42
19 | TTTCGTAAACTTTATGCACACACATATACATATTTC [CACACA_site8146] | 10 ± 0.28

Row | Sequence | gcPBM binding intensity (ln)
20 | TATATTAAAATAATCACACACATCAATTAATGGTAA [CACACA_site1234] | 7.43 ± 0.34
21 | TTTGAATACTGAATGGTGCAAATTGTTCTCCCCATG | 10.9 ± 0.61
22 | AGTATAACTTTTGCGCGTACACACATTTATCCTCTT [XGTACX_site429] | 8.35 ± 0.52
23 | TACAAATGCGTATGTCAATATATGGAGAAATAAATA [TGCATGCA_negctrl_site290] | 7.73 ± 0.49
24 | TGTATATGGTTTGTGCAAAAATTTATTAATGTGTAA [TGCATGCA_negctrl_site374] | 8.8 ± 0.35
25 | TATAATAATATTTACACACGCATATGTTATATATAT [CACACA_site1477] | 8.35 ± 0.85
26 | TATCTTTTTTTTAATACACACAAATATATGAAAGTA [CACACA_site4161] | 7.99 ± 0.33
27 | GTTATAATTGAACTAGTGCATAAATATATTTTAATT [GTGCAC_site9851] | 11.1 ± 0.45
28 | AATTCTGGCAAAATAACACACACATATATTTTATAT [CACACA_site9064] | 7.89 ± 0.59
29 | TTTTTTTTTACTAACTGTACTAAAGAAAAAAAAGGG [XGTACX_site3519] | 8.02 ± 0.18
30 | ATAAAGGAATTTTATACACACAACATATATATATAT [CACACA_site2861] | 9.45 ± 0.6
31 | ATATAAACACTGAATGCATGCACATATATATATATA [TGCATGCA_site940] | 9.945 ± 0.007
32 | GGGGGGGGAGGGTGAATACACACGTAATAATCATAA [CACACA_site1716] | 10.7 ± 0.51
33 | CGTATTATTATATAAACACACAAGGGGGCATGTATA [CACACA_site745] | 9.18 ± 0.12
34 | ATGTGTATATGTGTGGGTACTTAATTTTTTTCTTTA [XGTACX_site5351] | 8.31 ± 0.48
35 | AGGATATATATATTCACACACACATGGAAATATATA [CACACA_site383] | 7.58 ± 0.52
36 | ATATATATTTTATATTGTACTTATTATTTTTAGGGC [XGTACX_site723] | 7.71 ± 0.29
37 | TATGAATATCTATACACACACATATAAATACACGCT [CACACA_site6853] | 7.83 ± 0.52
38 | TAGATGTAAGTACATACACACATATATAAATAAATA [CACACA_site8528] | 8 ± 0.16

Row | Sequence | gcPBM binding intensity (ln)
39 | CTAATTGTTATTTTGTGTACTTATCATTCGAAATAT [XGTACX_site7963] | 8.01 ± 0.37
40 | AAAAAACAAATAAGTAAACACACATATATAATATAT [CACACA_site8830] | 7.55 ± 0.55
41 | ATATATATTTTAATTACACACAAAAAAAAAAAAAAA [CACACA_site4778] | 8.06 ± 0.47
42 | TTATATATTTTTAGGTGTACTTTTTTTTTTTTTTTT [XGTACX_site8164] | 8.79 ± 0.4
43 | AAAAAAAAAAAAAATACACACATATTTTATAGGGGA [CACACA_site3261] | 8.23 ± 0.45
44 | TATTTTTTGAAAAGTTCACACATCCAACTCGAGTTG [CACACA_site4412] | 7.61 ± 0.67
45 | AAAATAATGAAATGAAAAAAAAAAATTTAGATTCTA [CACACA_negctrl_site1385] | 7.26 ± 0.84
46 | GTCATATATTTATGTACACACATATATATATTTATA [CACACA_site4911] | 7.97 ± 0.26
47 | TATTCTAAGATAAGTGGTACTTATATATAATATATA [XGTACX_site8316] | 7.53 ± 0.38
48 | TGGTATGCAATATTGGTGCGTATATATTTTAAAGGG | 9.91 ± 0.16
49 | TATTTTTAATTTTTTAATGGTTTAATATTTTTATAT [CACACA_negctrl_site1186] | 7.33 ± 0.52
50 | ATATATATATATATATGTACATAAACATATATATAT [XGTACX_site1064] | 9.47 ± 0.66
51 | TCTTTAGCTTCTTCTTTTTTTTTTTTTTTTTTTTTT [XGTACX_negctrl_site518] | 9.615 ± 0.021
52 | CATATGTTATATGTAGTGCATTACTATAGGATTTAT [GTGCAC_site9860] | 11.4 ± 0.64
53 | TATTTTGCAAAATGTGCATGTTGTGTATTATGTGAC [TGCATGCA_site59] | 8.97 ± 0.51
54 | TATAATATACTATGTGGTACATATATATATTTATAG [XGTACX_site4556] | 7.51 ± 0.22
55 | ATATATAATATTGGTGGTACAAGGGTATTTTATATT [XGTACX_site8215] | 8.04 ± 0.52
56 | GTATAATTGGAAATTACACACCTTAGAATGTAACAT [CACACA_site4059] | 7.59 ± 0.46
57 | ATTATAATATATATATGTACATATATATATAATACT [XGTACX_site5092] | 7.79 ± 0.29
